Results are given in words; binding and its absence hold for the method and conditions named. For part of these data: In cells and extracts the contact can be indirect. Some results given as binding are weak or reduced against the parent protein; the word gives no strength. For part of these data: Sequences can lack the tags named with a protein.

By UniProt entry, the sequences of proteins in these tests, tags left out. Where a name states a change or a piece, a line headed by the entry shows the natural chain unless it says otherwise.
UniProt Q61644: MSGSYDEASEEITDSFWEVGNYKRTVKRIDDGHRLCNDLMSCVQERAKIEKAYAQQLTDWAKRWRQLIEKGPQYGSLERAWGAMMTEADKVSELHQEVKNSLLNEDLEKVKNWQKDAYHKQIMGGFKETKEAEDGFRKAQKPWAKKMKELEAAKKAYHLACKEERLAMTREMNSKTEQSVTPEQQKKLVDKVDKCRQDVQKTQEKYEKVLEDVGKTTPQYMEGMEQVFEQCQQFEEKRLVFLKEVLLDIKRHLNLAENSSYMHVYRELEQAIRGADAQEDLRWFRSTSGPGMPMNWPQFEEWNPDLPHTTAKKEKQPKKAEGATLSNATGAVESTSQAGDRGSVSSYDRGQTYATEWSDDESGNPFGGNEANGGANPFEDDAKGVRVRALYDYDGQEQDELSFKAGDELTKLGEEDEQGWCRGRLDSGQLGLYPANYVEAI
UniProt Q9WVE8: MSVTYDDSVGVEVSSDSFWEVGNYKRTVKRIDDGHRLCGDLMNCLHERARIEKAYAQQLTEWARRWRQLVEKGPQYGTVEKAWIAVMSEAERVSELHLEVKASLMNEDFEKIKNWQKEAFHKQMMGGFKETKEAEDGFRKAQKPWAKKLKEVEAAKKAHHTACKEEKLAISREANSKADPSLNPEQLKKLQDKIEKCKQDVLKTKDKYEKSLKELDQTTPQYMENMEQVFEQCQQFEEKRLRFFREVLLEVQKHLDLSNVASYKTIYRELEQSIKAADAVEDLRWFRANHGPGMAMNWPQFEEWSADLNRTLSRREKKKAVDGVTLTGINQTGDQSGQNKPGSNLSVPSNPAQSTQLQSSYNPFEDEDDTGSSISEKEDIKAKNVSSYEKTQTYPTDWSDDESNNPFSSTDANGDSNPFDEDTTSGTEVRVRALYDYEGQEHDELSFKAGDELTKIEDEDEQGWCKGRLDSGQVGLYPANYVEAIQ

Assay [1] has as its target T1, myc-tagged KCC2b (UniProt Q91V14).
T1 sequence: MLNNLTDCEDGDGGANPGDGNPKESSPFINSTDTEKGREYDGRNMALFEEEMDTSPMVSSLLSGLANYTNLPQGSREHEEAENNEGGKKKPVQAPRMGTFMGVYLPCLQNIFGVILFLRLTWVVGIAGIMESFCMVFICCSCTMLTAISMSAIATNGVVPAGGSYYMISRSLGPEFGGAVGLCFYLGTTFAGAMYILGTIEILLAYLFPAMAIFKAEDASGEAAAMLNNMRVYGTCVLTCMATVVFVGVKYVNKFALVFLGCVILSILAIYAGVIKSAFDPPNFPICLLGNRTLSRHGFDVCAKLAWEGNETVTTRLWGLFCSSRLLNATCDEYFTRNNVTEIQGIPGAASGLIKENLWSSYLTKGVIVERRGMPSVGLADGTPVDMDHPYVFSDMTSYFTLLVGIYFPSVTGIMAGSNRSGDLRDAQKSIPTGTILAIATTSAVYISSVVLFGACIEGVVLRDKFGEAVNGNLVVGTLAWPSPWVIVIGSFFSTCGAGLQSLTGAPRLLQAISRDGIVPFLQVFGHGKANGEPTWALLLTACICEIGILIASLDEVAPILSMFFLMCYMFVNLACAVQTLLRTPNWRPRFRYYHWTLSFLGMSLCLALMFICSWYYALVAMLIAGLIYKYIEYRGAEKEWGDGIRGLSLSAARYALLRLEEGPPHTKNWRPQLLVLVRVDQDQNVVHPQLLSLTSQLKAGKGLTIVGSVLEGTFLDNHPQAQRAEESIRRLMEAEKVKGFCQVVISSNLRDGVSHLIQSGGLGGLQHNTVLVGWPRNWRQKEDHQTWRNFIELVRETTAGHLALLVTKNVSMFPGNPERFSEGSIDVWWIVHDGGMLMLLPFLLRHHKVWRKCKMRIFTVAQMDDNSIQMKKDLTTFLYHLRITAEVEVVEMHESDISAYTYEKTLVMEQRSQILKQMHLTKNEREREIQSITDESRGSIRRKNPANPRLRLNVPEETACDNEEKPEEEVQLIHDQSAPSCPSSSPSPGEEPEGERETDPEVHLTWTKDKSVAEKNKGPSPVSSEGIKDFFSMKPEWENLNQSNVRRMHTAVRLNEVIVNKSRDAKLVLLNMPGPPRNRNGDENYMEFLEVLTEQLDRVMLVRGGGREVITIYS
Description: co-IP; COS7 cells co-transfected with myc-tagged KCC2b and GFP-tagged PACSIN constructs; lysed in modified RIPA buffer; precipitated with anti-N-terminal KCC2b antibody (4 hr, 4°C); immunoblot. On the technique in general: A western blot detects proteins with antibodies after separation by electrophoresis.

The target in assay [2] is T2, native KCC2b (mouse (endogenous in brain)) (UniProt Q91V14).
T2 sequence: T1 sequence
Description: co-IP; C12E9-solubilised whole-brain membrane fractions of adult mice; anti-N-terminal KCC2b (control IgY) or anti-PACSIN1 (control IgG) on beads without DMP cross-linking; immunoblot.

Assay [3] has as its target T2, native KCC2b (mouse (endogenous in brain)). Description: native gel or EMSA; antibody-shift assay with 2D BN-PAGE: C12E9-solubilised complexes pre-incubated 1 hr with anti-N-terminal KCC2b antibody or chicken IgY; BN-PAGE, then SDS-PAGE and blots for KCC2 and PACSIN1. In general terms: Mobility shift assays separate free from complexed probe on a gel.
For assay [4], the target named is PACSIN1 (PKC and CSNK2A1 substrate in neurons) (mouse (endogenous in brain)) (UniProt Q61644). Description: co-IP; C12E9-solubilised whole-brain membrane fractions of adult mice; anti-N-terminal KCC2b (control IgY) or anti-PACSIN1 (control IgG) on beads without DMP cross-linking; immunoblot.

“GFP-tagged PACSIN1 (from UniProt Q61644 1-441)”: the binding result in assay [1] is reported as “binds”. For the molecule “GFP-tagged PACSIN2 (from UniProt Q9WVE8 1-486)”, the binding result in assay [1] was “binds weakly”. As for “PACSIN1 (PKC and CSNK2A1 substrate in neurons) (from UniProt Q61644 1-441)”, the binding result in assay [2] and in assay [3] was “binds” each time.

Take “eGFP-PACSIN1 SH3 domain alone (from UniProt Q61644 382-441) (domain or fragment)”: the binding result in assay [1] is “no binding”.

B1: native KCC2 (K+-Cl- cotransporter KCC2) (protein, UniProt Q91V14 1-1138)
chain: MSRRFTVTSLPPAASAASADPESRRHSVADPRRLPREDVKGDGNPKESSPFINSTDTEKGREYDGRNMALFEEEMDTSPMVSSLLSGLANYTNLPQGSREHEEAENNEGGKKKPVQAPRMGTFMGVYLPCLQNIFGVILFLRLTWVVGIAGIMESFCMVFICCSCTMLTAISMSAIATNGVVPAGGSYYMISRSLGPEFGGAVGLCFYLGTTFAGAMYILGTIEILLAYLFPAMAIFKAEDASGEAAAMLNNMRVYGTCVLTCMATVVFVGVKYVNKFALVFLGCVILSILAIYAGVIKSAFDPPNFPICLLGNRTLSRHGFDVCAKLAWEGNETVTTRLWGLFCSSRLLNATCDEYFTRNNVTEIQGIPGAASGLIKENLWSSYLTKGVIVERRGMPSVGLADGTPVDMDHPYVFSDMTSYFTLLVGIYFPSVTGIMAGSNRSGDLRDAQKSIPTGTILAIATTSAVYISSVVLFGACIEGVVLRDKFGEAVNGNLVVGTLAWPSPWVIVIGSFFSTCGAGLQSLTGAPRLLQAISRDGIVPFLQVFGHGKANGEPTWALLLTACICEIGILIASLDEVAPILSMFFLMCYMFVNLACAVQTLLRTPNWRPRFRYYHWTLSFLGMSLCLALMFICSWYYALVAMLIAGLIYKYIEYRGAEKEWGDGIRGLSLSAARYALLRLEEGPPHTKNWRPQLLVLVRVDQDQNVVHPQLLSLTSQLKAGKGLTIVGSVLEGTFLDNHPQAQRAEESIRRLMEAEKVKGFCQVVISSNLRDGVSHLIQSGGLGGLQHNTVLVGWPRNWRQKEDHQTWRNFIELVRETTAGHLALLVTKNVSMFPGNPERFSEGSIDVWWIVHDGGMLMLLPFLLRHHKVWRKCKMRIFTVAQMDDNSIQMKKDLTTFLYHLRITAEVEVVEMHESDISAYTYEKTLVMEQRSQILKQMHLTKNEREREIQSITDESRGSIRRKNPANPRLRLNVPEETACDNEEKPEEEVQLIHDQSAPSCPSSSPSPGEEPEGERETDPEVHLTWTKDKSVAEKNKGPSPVSSEGIKDFFSMKPEWENLNQSNVRRMHTAVRLNEVIVNKSRDAKLVLLNMPGPPRNRNGDENYMEFLEVLTEQLDRVMLVRGGGREVITIYS
B1: the binding result in assay [4] is reported as “binds”.

The values above are taken from publication PMC5640428.
